Experimental findings from patent US20250032630A1, “B7H4 ANTIBODY-DRUG CONJUGATE AND USE THEREOF” (Duality Biologics (Suzhou) Co., Ltd., priority 2022, published 2025) are described below.

Bounds are passed on as bounds.

The IC50 is the concentration at which inhibition is half-maximal. Lower therefore signals inhibition by little substance.

For series [1], the system named is human breast cancer cells MCF-7 positive for B7H4 expression, xenograft. In words: Pharmacodynamic evaluation in tumor-bearing mice (MCF-7). In kind it is in vivo. As to conditions: MCF-7 xenograft in NCG mice, 3 mg/kg single injection, endpoint day 25.
The target in a further series is T1, human B7H4 (Homo sapiens, UniProt Q7Z7D3).
T1 sequence (Q7Z7D3 25-282): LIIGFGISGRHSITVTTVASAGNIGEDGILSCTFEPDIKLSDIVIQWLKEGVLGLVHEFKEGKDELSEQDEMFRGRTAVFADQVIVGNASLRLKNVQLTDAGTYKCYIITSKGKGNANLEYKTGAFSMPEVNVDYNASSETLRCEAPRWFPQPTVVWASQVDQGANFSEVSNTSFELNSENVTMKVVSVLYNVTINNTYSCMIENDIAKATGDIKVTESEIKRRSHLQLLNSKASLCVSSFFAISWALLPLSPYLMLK
In words: Binding specificity to cells overexpressing human B7 family proteins (flow cytometry). Set-up: expressed in transfected cells. As to conditions: HEK293T stably expressing the protein, 100 nM or 300 nM. On the technique in general: A flow cytometer gives signals particle by particle.

Series [2] concerns MDA-MB-231 cells negative for B7H4 expression. The series can be described thus: In vitro proliferation inhibition of antibody-drug conjugate (CTG, 7 days). The series is classed as cell-based. As to conditions: cell left blank in the table, second cell line of the test is MDA-MB-231, 7 days.
The target of another series is T2, human CD86 (B7-2) (Homo sapiens, UniProt P42081).
T2 construct: expressed in transfected cells
T2 sequence (P42081 24-329): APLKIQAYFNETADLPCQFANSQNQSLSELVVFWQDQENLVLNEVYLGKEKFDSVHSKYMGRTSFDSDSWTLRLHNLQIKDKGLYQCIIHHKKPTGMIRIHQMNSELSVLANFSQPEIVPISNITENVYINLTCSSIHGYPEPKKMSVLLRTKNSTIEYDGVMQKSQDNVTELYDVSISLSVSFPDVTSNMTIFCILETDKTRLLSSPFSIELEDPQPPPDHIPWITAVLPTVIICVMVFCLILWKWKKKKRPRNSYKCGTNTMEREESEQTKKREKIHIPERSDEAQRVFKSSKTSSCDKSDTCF
In words: Binding specificity to cells overexpressing human B7 family proteins (flow cytometry). As to conditions: HEK293T stably expressing the protein, 100 nM or 300 nM.

The subject of a further series is HT29-B7H4 cells. In words: Bystander killing test, separate incubation (CTG). In kind it is cell-based. To be noted: 10 nM, 7 days.

B1: DB1001-X2: anti-B7H4 antibody DB1001 conjugated with linker-cytotoxin X2, DAR 5.4 (conjugate)
heavy: QVQLVESGGGVVQPGRSLRLSCAASGFTFRSFGMHWVRQAPGKGLEWVAVISYDASNEYYADSVKGRFIISRDNSKDTLYLQMNSLRAGDTAVYYCAKGGALRWYFAYWGQGTLVTVSS[in this place human IgG1 constant region]
light: EIVMTQSPATLSVSPGERATLSCRASQSISSNLGWYQQKPGQAPRLLIYGASTRATGIPARFSGSGSGTEFTLTISSLQSEDFAVYYCQQYRSWPPLTFGGGTKVEIKRTVAAPSVFIFPPSDEQLKSGTASVVCLLNNFYPREAKVQWKVDNALQSGNSQESVTEQDSKDSTYSLSSTLTLSKADYEKHKVYACEVTHQGLSSPVTKSFNRGEC
Regarding B1, the tumor inhibitory activity entry in series [1] is on record as “significant dose-dependent tumor inhibitory activity”. In addition, the “binding to human B7-H4” value in the series with human B7H4 is “bound”. Also, the IC50 in series [2] is over 200 nM. Moreover, the “binding to B7-2” value with human CD86 (B7-2) was “not detected”. For the same molecule, the “HT29-B7H4 cell viability, Separate incubation” value with HT29-B7H4 cells came to 28.0%.
